Data taken from PubChem BioAssay (NCATS).
Where “and” joins values, the source holds several entries; their conditions need not be identical. Identical values can stand only once. The shares of active, inactive and inconclusive entries below differ from those in the screen. For part of these data: A potency beside an inconclusive call is a rough fit, not a confirmed value. Calls of active or inactive are those of the source. Calls come from the whole dose curve; as a rule, active = well fitted curve in the direction sought with a large enough effect; inconclusive = small, poorly fitted or top-dose-only effect, or another doubt; inactive = no such curve, though single readings can be large; an effect the other way counts as inactive or inconclusive.

Key:
[1] = system: Zika virus NS2B-NS3 protease; experiment: Primary screen GU AMC qHTS for Zika virus inhibitors (AID 1347154); note: nearly all actives have a fitted effect of over 70% in size; note: potency is the fitted concentration of half-maximal effect
Outline: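 Unlinked Zika NS2B hydrophilic domain–NS3 protease complex at 25 nM in 10 mM Tris-HCl pH 8.0, 0.01% Tween 20, with an AMC peptide substrate. Fluorescence change (340/450 nm) over 15 min at room temperature, normalized to controls, fitted to 4-parameter Hill.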

[2] = ZIKV-mCherry secondary qHTS for Zika virus inhibitors (AID 1347158); note: potency is the fitted concentration of half-maximal effect
Outline: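 Percent infection is the share of Hoechst-identified Vero nuclei with mCherry signal above 450 RFU (3 SD over negative controls). Cells were infected with recombinant ZIKV-mCherry at MOI 1 after compound addition and imaged 48–72 h later.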

[3] = system: Zika virus NS2B-NS3 protease (unlinked complex); experiment: Primary screen GU Rhodamine qHTS for Zika virus inhibitors: Unlinked NS2B-NS3 protease assay (AID 1347159); note: nearly all actives have a fitted effect of over 60% in size; note: potency is the fitted concentration of half-maximal effect
Outline: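 Percent inhibition came from the 15-min rise in Rhodamine110 fluorescence (1.5 microM substrate, ~15% conversion), normalized to no-inhibitor and no-enzyme wells and Hill-fitted. Unlinked protease, 25 nM, pH 8.0 Tris buffer; compounds up to 114 microM, 15-min preincubation.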

[4] = Vero cells viability qHTS for Zika virus inhibitors (AID 1347167); settings: cytotoxicity counter-screen (Zika); note: potency is the fitted concentration of half-maximal effect
Outline: (§1)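 qHTS titration; 24-48 h compound exposure, 37 degrees C/5% CO2; DMEM, 4% FBS; CellTiter Glo ATP luminescence.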

[5] = Tertiary RLuc qRT-PCR qHTS assay for Zika virus inhibitors (AID 1347169); note: potency is the fitted concentration of half-maximal effect; nearly all actives have a fitted effect of over 55% in size
Outline: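 Luminescence read-out: live-cell Renilla luciferase substrate applied to infected Vero cells, signal measured after 1-1.5 hrs. Cells had received compound before ZIKV-RLuc (Cambodian strain, MOI 1-2) infection and were incubated 48-72 hrs at 37 degrees C.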

[6] = Confirmatory screen NINDS Rhodamine qHTS for Zika virus inhibitors (AID 1347161); note: nearly all actives have a fitted effect of over 60% in size; note: potency is the fitted concentration of half-maximal effect
Outline: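 Purified NS2B-NS3 protease with the NS2B hydrophilic domain joined by a flexible linker (25 nM) in 10 mM Tris-HCl pH 8.0, 0.01% Tween 20, preincubated 15 min at RT with compound; Rhodamine110 peptide substrate 1.5 µM; fluorescence change over 15 min; 4-parameter Hill fit.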

[7] = system: Zika virus NS2B-NS3 protease (linked construct); experiment: 384 well plate NINDS Rhodamine confirmatory qHTS for Zika virus inhibitors (AID 1347164);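 note: fluorescence from protease cleavage of Ac-LKRR-rhodamine 110 substrate; potency is the fitted concentration of half-maximal effect; nearly all actives have a fitted effect of over 65% in size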
Outline: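 Fluorescence read at ex 485 nm/em 538 nm, 25 min after adding 10 microM Ac-LKRR-Rd substrate at room temperature in the dark; signal normalized to no-enzyme and no-inhibitor controls. Enzyme final 5, 30 or 60 nM; compounds, ~15 min preincubation.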

[8] = target: Lysine-specific demethylase 5B (Homo sapiens) (UniProt Q9UGL1); experiment: Optimization screen for KDM5B Histone Demethylases FDH coupled qHTS against the LOPAC library (AID 1347166); note: potency is the fitted concentration of half-maximal effect
Outline: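 KDM5BDeltaAP (200nM final) in 50mM HEPES pH 7.5, 0.01% Tween-20 was preincubated with compound for 10 min at room temperature. A substrate mix of 12.5uM H3K4Me3, 25uM a-ketoglutarate, ascorbate, Fe2+, NAD+ and formaldehyde dehydrogenase was then added. NADH fluorescence (340/450 nm) was read initially and after 30 min.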

[9] = system: Zika virus NS2B-NS3 protease (linked); experiment: 384 well plate NINDS AMC confirmatory qHTS for Zika virus inhibitors (AID 1347163); note: potency is the fitted concentration of half-maximal effect; nearly all actives have a fitted effect of over 50% in size
Outline: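 Fluorescence at 355/460 nm was read after 25 minutes of cleavage of 30 microM Ac-VKTGKR-AMC at room temperature, in the dark. Before substrate addition, compounds (up to 1 mM final) sat ~15 minutes with 5, 30 or 60 nM linked protease. Signals were normalized to no-enzyme and no-inhibitor wells.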

[10] = Confirmatory screen GU Rhodamine qHTS for Zika virus inhibitors qHTS (AID 1347157); note: nearly all actives have a fitted effect of over 70% in size
Outline: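 Compounds, tested up to 114 microM, were incubated for 15 minutes with 25 nM unlinked NS2B-NS3 protease at pH 8.0. Cleavage of 1.5 microM Rhodamine110 substrate was then followed by fluorescence for 15 minutes.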

[11] = HepG2 cells viability qHTS for Zika virus inhibitors (AID 1347168); note: potency is the fitted concentration of half-maximal effect
Outline: as §1
Tags give direction and shape of the fitted curve.

UniProt Q9UGL1, sequence (Q9UGL1 whole entry, looked up): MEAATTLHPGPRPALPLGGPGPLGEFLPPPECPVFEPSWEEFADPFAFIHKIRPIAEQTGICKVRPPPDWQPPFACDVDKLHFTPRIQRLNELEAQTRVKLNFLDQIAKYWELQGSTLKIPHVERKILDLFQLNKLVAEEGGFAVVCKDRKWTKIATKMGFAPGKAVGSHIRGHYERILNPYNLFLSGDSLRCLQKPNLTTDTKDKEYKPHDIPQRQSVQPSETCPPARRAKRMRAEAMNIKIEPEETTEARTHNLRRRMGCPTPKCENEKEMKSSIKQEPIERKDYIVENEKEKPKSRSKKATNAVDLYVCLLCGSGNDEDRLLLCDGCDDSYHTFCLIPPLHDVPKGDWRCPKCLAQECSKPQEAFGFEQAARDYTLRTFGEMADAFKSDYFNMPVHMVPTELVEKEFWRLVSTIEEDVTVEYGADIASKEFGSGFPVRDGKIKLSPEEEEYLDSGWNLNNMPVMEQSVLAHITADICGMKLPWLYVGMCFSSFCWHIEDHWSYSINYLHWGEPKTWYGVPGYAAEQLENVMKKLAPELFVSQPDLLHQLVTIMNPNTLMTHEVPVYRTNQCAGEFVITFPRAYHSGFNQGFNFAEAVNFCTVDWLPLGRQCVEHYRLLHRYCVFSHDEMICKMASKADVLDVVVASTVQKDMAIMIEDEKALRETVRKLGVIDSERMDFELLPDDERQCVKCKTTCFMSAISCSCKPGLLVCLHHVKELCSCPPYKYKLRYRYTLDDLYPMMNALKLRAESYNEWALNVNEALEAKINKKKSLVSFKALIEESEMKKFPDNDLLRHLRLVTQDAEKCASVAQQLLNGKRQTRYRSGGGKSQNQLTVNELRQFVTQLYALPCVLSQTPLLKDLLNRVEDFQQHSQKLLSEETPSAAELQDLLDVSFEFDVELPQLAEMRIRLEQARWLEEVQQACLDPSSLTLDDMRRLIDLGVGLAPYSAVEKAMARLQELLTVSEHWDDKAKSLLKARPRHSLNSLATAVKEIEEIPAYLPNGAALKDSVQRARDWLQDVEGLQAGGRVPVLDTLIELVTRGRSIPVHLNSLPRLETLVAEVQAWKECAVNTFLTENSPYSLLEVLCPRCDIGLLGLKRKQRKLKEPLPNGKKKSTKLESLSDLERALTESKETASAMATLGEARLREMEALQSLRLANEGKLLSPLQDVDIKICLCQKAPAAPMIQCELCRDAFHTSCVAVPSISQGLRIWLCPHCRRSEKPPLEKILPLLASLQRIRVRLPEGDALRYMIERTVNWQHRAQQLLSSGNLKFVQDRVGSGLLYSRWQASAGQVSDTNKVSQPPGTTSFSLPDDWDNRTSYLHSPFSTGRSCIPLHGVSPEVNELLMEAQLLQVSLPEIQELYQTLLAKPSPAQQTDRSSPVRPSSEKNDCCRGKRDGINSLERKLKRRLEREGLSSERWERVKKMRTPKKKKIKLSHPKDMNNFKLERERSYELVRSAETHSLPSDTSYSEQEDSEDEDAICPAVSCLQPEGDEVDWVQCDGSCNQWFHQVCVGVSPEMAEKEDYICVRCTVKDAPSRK

O=Cc1ccc(O)c(O)c1O
Potency [1]: inconclusive: 22.8 µM [inhibitor, partial curve]

O=C(O)c1cccnc1Nc1cccc(C(F)(F)F)c1
Potency [1]: inactive

Oc1ccc(C=Cc2cc(O)cc(O)c2)cc1
Potency [1]: inconclusive: 21.5 µM [inhibitor, partial curve]

COC(=O)c1nc(Cl)c(Cl)nc1N
Potency [1]: active: 10 µM

CC(C)(C(=O)NCC(F)(F)C(F)(F)F)C(=O)N[C@@H]1C(=O)Nc2ccccc2-c2ccccc21
Potency [1]: inactive

CC(C)(C)c1ccc(O)c(O)c1
Potency [1]: inactive

C=C(c1ccc(C(=O)O)cc1)c1cc2c(cc1C)C(C)(C)CCC2(C)C
Potency [1]: active: 9.61 µM and active: 14.4 µM | Potency [2]: active: 7.08 µM | Potency [3]: active: 3.16 µM | Potency [4]: inconclusive: 36.9 µM [cytotoxic, single point] | Potency [5]: inconclusive: 20.8 µM [inhibitor, partial curve] and inconclusive: 8.27 µM [inhibitor, partial curve]

Cc1ccc(N)cc1O
Potency [1]: inconclusive: 0.1 µM [inhibitor, full curve]

CC1(C)CCC2=C(O1)c1ccccc1C(=O)C2=O
Potency [1]: inactive

Oc1ccc2ccccc2c1SSc1c(O)ccc2ccccc12
Potency [1]: inconclusive: 27.1 µM [inhibitor, single point]

COc1cc2c(Oc3ccc(NC(=O)C4(C(=O)Nc5ccc(F)cc5)CC4)cc3F)ccnc2cc1OCCCN1CCOCC1
Potency [1]: inactive

O=C1CCc2ccc(OCCCCN3CCN(c4cccc(Cl)c4Cl)CC3)cc2N1
Potency [1]: inconclusive: 28.7 µM [inhibitor, partial curve] and inconclusive: 8.57 µM [inhibitor, full curve, poor fit]

Oc1cc(O)cc(/C=C/c2ccc(O)c(O)c2)c1
Potency [1]: inconclusive: 2.67 µM [inhibitor, partial curve, poor fit] and inconclusive: 3.77 µM [inhibitor, full curve]

CC(C)(C)Cn1c(N)nc2ccc(-c3[nH]c(C(C)(C)C)nc3-c3ccc(F)cc3)nc21
Potency [1]: active: 10.8 µM

CN(C)[C@@H]1C(=O)C(C(N)=O)=C(O)[C@@]2(O)C(=O)C3=C(O)c4c(O)cccc4C[C@H]3C[C@@H]12
Potency [1]: inconclusive: 32.2 µM [inhibitor, partial curve, poor fit] | Potency [2]: inconclusive: 31.6 µM [inhibitor, partial curve] | Potency [6]: inconclusive: 55.5 µM [inhibitor, partial curve] | Potency [7]: inconclusive: 44.7 µM [inhibitor, full curve, poor fit]

Nc1nccc(Oc2ccc(NC(=O)c3c[nH]cc(-c4ccc(F)cc4)c3=O)cc2F)c1Cl
Potency [1]: inconclusive: 8.57 µM [inhibitor, full curve] | Potency [3]: inconclusive: 44.7 µM [inhibitor, partial curve]

C[C@H](Cc1ccc(O)c(O)c1)[C@@H](C)Cc1ccc(O)c(O)c1
Potency [1]: inconclusive: 6.81 µM [inhibitor, partial curve] | Potency [8]: inconclusive: 31.6 µM [inhibitor, partial curve, poor fit]

C/C(=N\O)c1ccc(OCC(=O)N2CCCCC2)cc1
Potency [3]: inactive

CC(=O)Nc1ccc([C@H](C)C(=O)Nc2ncc(C(C)C)s2)cc1
Potency [2]: inconclusive: 0.708 µM [inhibitor, full curve, poor fit] | Potency [9]: inconclusive: 7.08 µM [inhibitor, full curve, poor fit] | Potency [7]: inconclusive: 251 µM [inhibitor, partial curve, poor fit] | Potency [5]: active: 1.04 µM

Cc1ccc(C(=O)Nc2ccc(S(=O)(=O)O)c3cc(S(=O)(=O)O)cc(S(=O)(=O)O)c23)cc1NC(=O)c1cccc(NC(=O)Nc2cccc(C(=O)Nc3cc(C(=O)Nc4ccc(S(=O)(=O)O)c5cc(S(=O)(=O)O)cc(S(=O)(=O)O)c45)ccc3C)c2)c1
Potency [2]: inconclusive: 17.8 µM [inhibitor, partial curve, poor fit]

O=c1c(O)c(-c2ccc(O)cc2)oc2cc(O)cc(O)c12
Potency [10]: inactive | Potency [6]: inactive

COc1ccc(Cl)cc1C(=O)NCCc1ccc(S(=O)(=O)NC(=O)NC2CCCCC2)cc1
Potency [3]: inconclusive: 39.8 µM [inhibitor, partial curve]

O=C(CCN1CCN(C(=O)OCc2cc(Cl)cc(Cl)c2)CC1)c1ccc2[nH]c(=O)oc2c1
Potency [3]: active: 44.7 µM

COc1cccc(-c2ccc(NC(=O)C3=C(C(=O)O)CCC3)c(F)c2)c1
Potency [3]: active: 17.8 µM

O=C(Nc1ccc([N+](=O)[O-])cc1Cl)c1cc(Cl)ccc1O
Potency [1]: inconclusive: 27.1 µM [inhibitor, partial curve] | Potency [2]: inconclusive: 1 µM [inhibitor, full curve] | Potency [4]: active: 0.415 µM | Potency [11]: inconclusive: 1.17 µM [cytotoxic, full curve] | Potency [5]: active: 0.294 µM
